Where “and” joins values, the source holds several entries; their conditions need not be identical. Equal entries are not always repeated. About 31,000 (8.9%) of roughly 350,000 compounds were called active. Inconclusive results, whose numbers are uncertain, are shown with a selection of clear calls. Calls come from the whole dose curve; as a rule, active = well fitted inhibition curve with a large enough effect; inconclusive = small, poorly fitted or top-dose-only effect; inactive = no such curve, though single readings can be large or run the other way. Where the call is inconclusive, the potency comes from a doubtful curve fit.
These molecules were tested against Histone-lysine N-methyltransferase EHMT2 (Homo sapiens) (UniProt Q96KQ7) (assay: qHTS Assay for Inhibitors of Histone Lysine Methyltransferase G9a). Conditions: G9a H3K9 monomethylation, AlphaScreen, 2 h; activity, negative = inhibition: at 59 µM (top of the series) unless noted.
UniProt Q96KQ7, sequence (Q96KQ7 whole entry, looked up): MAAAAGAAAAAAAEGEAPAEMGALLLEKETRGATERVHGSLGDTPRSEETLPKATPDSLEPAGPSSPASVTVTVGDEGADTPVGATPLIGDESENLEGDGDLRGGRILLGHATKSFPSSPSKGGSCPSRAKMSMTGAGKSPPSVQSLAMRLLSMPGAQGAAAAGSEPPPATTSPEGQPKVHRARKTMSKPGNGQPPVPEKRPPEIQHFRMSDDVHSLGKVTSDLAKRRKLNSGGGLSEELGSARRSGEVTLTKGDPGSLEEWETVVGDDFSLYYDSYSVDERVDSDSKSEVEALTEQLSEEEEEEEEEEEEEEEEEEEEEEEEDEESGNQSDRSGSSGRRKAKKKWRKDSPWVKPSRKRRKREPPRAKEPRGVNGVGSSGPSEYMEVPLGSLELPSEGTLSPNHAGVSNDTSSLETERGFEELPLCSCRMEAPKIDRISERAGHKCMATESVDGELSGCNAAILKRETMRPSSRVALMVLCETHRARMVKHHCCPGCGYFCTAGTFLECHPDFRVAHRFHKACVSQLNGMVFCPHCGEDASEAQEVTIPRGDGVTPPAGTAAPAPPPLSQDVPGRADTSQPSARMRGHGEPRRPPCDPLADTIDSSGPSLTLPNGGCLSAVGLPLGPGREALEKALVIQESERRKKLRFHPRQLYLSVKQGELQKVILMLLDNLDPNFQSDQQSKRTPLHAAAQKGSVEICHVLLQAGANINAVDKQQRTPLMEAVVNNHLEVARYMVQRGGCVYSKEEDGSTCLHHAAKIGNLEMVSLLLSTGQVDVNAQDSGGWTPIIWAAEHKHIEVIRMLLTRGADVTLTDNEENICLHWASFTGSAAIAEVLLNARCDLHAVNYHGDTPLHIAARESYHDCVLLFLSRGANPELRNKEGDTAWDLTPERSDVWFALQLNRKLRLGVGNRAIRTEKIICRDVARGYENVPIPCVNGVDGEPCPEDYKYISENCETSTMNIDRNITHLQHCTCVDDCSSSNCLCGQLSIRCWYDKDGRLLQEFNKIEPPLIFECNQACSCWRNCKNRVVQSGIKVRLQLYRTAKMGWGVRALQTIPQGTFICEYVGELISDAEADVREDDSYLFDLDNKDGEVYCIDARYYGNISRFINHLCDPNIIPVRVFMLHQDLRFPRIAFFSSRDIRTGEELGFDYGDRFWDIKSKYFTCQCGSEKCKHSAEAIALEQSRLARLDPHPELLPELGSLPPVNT
In short: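 Step 1: enzyme (final 20 nM) with compound, 15 min RT. Step 2: substrate peptide 500 nM and SAM 20 uM, 2 h RT. Step 3: anti-H3K9me1 antibody and AlphaScreen beads, 10 min, then plate read.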
`COCCC(=O)N1CCC(Oc2ccc(C(=O)N3CCC(N(C)C)C3)cc2)CC1` (configuration not stated) was tested, and the Potency was “inactive”. `Cc1cc2ncn(CCCCOc3ccccc3)c2cc1C` was tested, and the Potency was inconclusive: 25.1 µM [inhibitor, single point] and inconclusive: 3.55 µM [inhibitor, partial curve, poor fit]. With `CCc1nnc(NC(=O)C(NC(=O)c2ccccc2Cl)C(C)C)s1` (configuration not stated) the Potency was inconclusive: 89.1 µM [inhibitor, partial curve, poor fit]. In the case of `C/C(=N\Nc1ccc(C(=O)O)cc1)c1ccc2c(c1)Nc1ccccc1S2`, the Potency was active: 11.2 µM. For `CC1CCN(CCNC(=O)C2CCCN(S(=O)(=O)c3cccc4nonc34)C2)CC1` (configuration not stated), the Potency was inconclusive: 89.1 µM [inhibitor, single point]. `COc1cc(/C=N/N=C2/NC(=O)C(Cc3ccccc3)S2)ccc1O` (configuration not stated) was tested, and the Potency was “inactive”. For `O=C(CSc1c2c(nc3ccc(Cl)cc13)CCCC2)N1CCN(c2cccc(Cl)c2)CC1`, the Potency was inconclusive: 17.8 µM [inhibitor, partial curve, poor fit]. For `COc1ccc(CNC(=O)c2cnc3sc(N4CCCC4)nn3c2=O)cc1OC`, the Potency was “inactive”. For `C=CCc1ccc(OCCCCN2CCC(C)CC2)c(OC)c1`, the Potency was inconclusive: 7.94 µM [inhibitor, full curve, poor fit]. In the case of `CC1CCN(C(=O)c2cccc(S(=O)(=O)N3CCN(c4ccccc4)CC3)c2)CC1`, the Potency was inconclusive: 89.1 µM [inhibitor, partial curve, poor fit]. With `CCN(CCCNC(=O)c1cc2c(=O)n(C)c3ccccc3c2s1)Cc1ccccc1` the Potency was inconclusive: 25.1 µM [inhibitor, partial curve, poor fit]. `Cc1cccc(NC(=O)c2ccc(N(Cc3ccccc3)S(C)(=O)=O)cc2)c1` was tested, and the Potency was inconclusive: 3.98 µM [inhibitor, partial curve, poor fit]. `COc1cc(NC(=O)CC2C(=O)N(c3ccc(Cl)cc3)C(=O)N2Cc2cccs2)cc(OC)c1` (configuration not stated) was tested, and the Potency was “inactive”. In the case of `COc1ccc(-c2nc(CS(=O)CC(=O)NCc3ccc(C)cc3)c(C)o2)cc1OC` (configuration not stated), the Potency was inconclusive: 70.8 µM [inhibitor, single point]. With `CC1=CS(=O)(=O)CC1Sc1nc2ccccc2[nH]1` (configuration not stated) the Potency was active: 79.4 µM. `COc1ccc(C2C(C#N)=C(N)OC3=C2C(=O)CCC3)cc1OC` (configuration not stated) was tested, and the Potency was “inactive”. For `O=C(NCC1CCCN1S(=O)(=O)c1ccccc1)C(=O)NC1CC1` (configuration not stated), the Potency was active: 50.1 µM. For `Cc1onc(-c2ccccc2)c1C(=O)NCC1CCCO1` (configuration not stated), the Potency was inconclusive: 12.6 µM [inhibitor, partial curve]. `CC(C)c1ccc(C2/C(=C(/O)c3ccc(F)cc3)C(=O)C(=O)N2CCCN2CCOCC2)cc1` (configuration not stated) was tested, and the Potency was inconclusive: 79.4 µM [inhibitor, single point]. In the case of `CCOc1ccc2[nH]cc(C(=O)N3CCN(CC)CC3)c(=O)c2c1`, the Potency was inconclusive: 8.91 µM [inhibitor, partial curve, poor fit]. `c1ccc(-c2ccc(-n3ccnc3)cc2)cc1` was tested, and the Potency was inconclusive: 89.1 µM [inhibitor, single point]. For `CCOC(=O)c1cccc(NC(=O)CN2C(=O)c3ccccc3Sc3ncccc32)c1`, the Potency was “inactive”. With `CC(=O)Oc1ccc2cc(-c3ccccc3)c(=O)oc2c1` the activity, negative = inhibition was inactive: 25.6% [at 0.501 µM]. `COc1ccc(N=C2NC(=O)/C(=C/c3ccco3)S2)cc1` was tested, and the Potency was active: 44.7 µM. In the case of `CCCC(=O)Nc1ccc(N2CCCCC2)cc1`, the Potency was inconclusive: 0.891 µM [inhibitor, partial curve, poor fit]. `N#Cc1nc(COc2ccc(Br)cc2)oc1N1CCCCCC1` was tested, and the Potency was active: 44.7 µM. `CCN1C(=O)[C@H]2[C@@H](c3ccccc3)N3C(=O)N(c4cccc(F)c4)C(=O)[C@@]3(CC(C)C)[C@H]2C1=O` was tested, and the Potency was inconclusive: 50.1 µM [inhibitor, partial curve, poor fit]. With `C=C(CC1([C@@H](NP(=O)(c2ccccc2)c2ccccc2)[C@H]2C[C@@H]2CCCC)CC1)c1ccccc1` the Potency was inconclusive: 89.1 µM [inhibitor, single point]. For `NC(=O)CSc1ncc(-c2ccc([N+](=O)[O-])cc2)[nH]1`, the Potency was inconclusive: 44.7 µM [inhibitor, partial curve]. In the case of `CN(C)c1ccc(NC(=O)c2sc(SCC(=O)Nc3nccs3)nc2N)cc1`, the Potency was inconclusive: 1.41 µM [inhibitor, full curve, poor fit]. For `Cc1ccccc1C(=O)Nc1ccc(-c2nc3ccc(C(=O)c4ccccc4)cc3[nH]2)cc1`, the activity, negative = inhibition was inactive: 40.8% [at 12.7 µM]. `O=C(NNc1nc2ccccc2s1)c1ccccc1F` was tested, and the Potency was “inactive”. With `Cc1cc2oc(C(=O)Nc3c(C(=O)Nc4ccccc4)oc4ccccc34)cc(=O)c2cc1C` the Potency was “inactive”. With `CCc1ccc(-c2nc(CN3CCC(C(=O)N4CCN(c5ccccn5)CC4)CC3)c(C)o2)cc1` the Potency was inconclusive: 50.1 µM [inhibitor, partial curve]. In the case of `Cc1cc([N+](=O)[O-])ccc1NC(=O)c1cccc(NC(=O)C(C)C)c1`, the Potency was “inactive”. `O=C(NC(C(=O)O)c1ccccc1)c1ccccc1` (configuration not stated) was tested, and the Potency was inconclusive: 70.8 µM [inhibitor, partial curve, poor fit]. `CCCOc1ccc(N2C(=O)C3ON(c4ccccc4)C(CCC)C3C2=O)cc1` (configuration not stated) was tested, and the Potency was active: 39.8 µM. `Cc1ccc(S(=O)(=O)N2CCN(C(=O)CSc3ncn[nH]3)CC2)c(C)c1` was tested, and the Potency was inconclusive: 56.2 µM [inhibitor, partial curve, poor fit]. In the case of `CCN(CC)S(=O)(=O)c1ccc2c(c1)nc(CCC(=O)Nc1ccc3c(c1)OCO3)n2C`, the Potency was inconclusive: 20 µM [inhibitor, single point]. `CC(=O)c1cccc(NC(=O)Nc2c(C)nn(C)c2C)c1` was tested, and the activity, negative = inhibition was inactive: 1.24% [at 12.7 µM]. With `CN1C(C(=O)Nc2ccc(F)cc2F)=CC(c2ccco2)=NS1(=O)=O` the Potency was inconclusive: 35.5 µM [inhibitor, single point]. `O=S(=O)(c1ccc(F)cc1)N1CCC2(CC1)OCCN2S(=O)(=O)c1cccs1` was tested, and the activity, negative = inhibition was inactive: 4.37% [at 0.501 µM].

Source: PubChem BioAssay AID504332 (National Center for Advancing Translational Sciences (NCATS), 2011)
% is set by controls: 0 for no effect and ±100 for the full control effect; potency is the fitted concentration of half-maximal effect; tags give direction and shape of the fitted curve.
Note: nearly all actives have a fitted effect of over 75% in size.
